# In the supplement of paper PMC6531468:
# Some of the results follow. Read counts after selection give these values, which scatter widely. Each score is taken over the longer molecules that contain the sequence shown.
# How the values were obtained:
# Experiment in all cases: 6-mer SELEX enrichment z-score vs GST control; IMP3 is the RNA-binding protein IGF2BP3; higher = more enriched by binding
# [1] = tested on: IMP3 KH1-4; conditions: construct: KH1-4 (164-579); SELEX round: R4
# Protocol: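 SELEX-seq with GST-tagged IMP3 KH1-4 (Pro164-Lys579) and an N40 RNA pool, round 4. 6-mer z-score of sequence-tag enrichment normalised to the corresponding GST SELEX round; RNA k-mers written as DNA (T for U).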
# [2] = tested on: IMP3 RRM1-2; conditions: construct: RRM1-2 (1-163); SELEX round: R2
# Protocol: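 SELEX-seq with GST-tagged IMP3 RRM1-2 (Met1-Asn163) and an N40 RNA pool, round 2. 6-mer enrichment z-score normalised to GST SELEX. RNA written as DNA (T = U).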
# [3] = target: IMP3 full-length (UniProt O00425); conditions: construct: FL IMP3 (1-579); SELEX round: R4
# Protocol: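 SELEX-seq with GST-tagged full-length IMP3 and an N40 RNA pool, round 4. Each 6-mer is scored as an enrichment z-score of sequence tags containing it, normalised to the matching GST SELEX round. RNA written as DNA (T = U).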
# [4] = tested on: IMP3 KH1-2; conditions: construct: KH1-2 (164-376); SELEX round: R4
# Protocol: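 SELEX-seq with GST-tagged IMP3 KH1-2 (Pro164-Phe376) and an N40 RNA pool, round 4 (stringent 300/600 mM KCl washes). 6-mer z-score of sequence-tag enrichment normalised to the corresponding GST SELEX round; RNA k-mers written as DNA (T for U).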
# [5] = tested on: IMP3 KH3-4; conditions: construct: KH3-4 (377-579); SELEX round: R4
# Protocol: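 SELEX-seq with GST-tagged IMP3 KH3-4 (Pro377-Lys579) and an N40 RNA pool, round 4. 6-mer z-score of sequence-tag enrichment normalised to the corresponding GST SELEX round; RNA k-mers written as DNA (T for U).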
# IMP3 KH3-4, sequence (chain, as listed by the source): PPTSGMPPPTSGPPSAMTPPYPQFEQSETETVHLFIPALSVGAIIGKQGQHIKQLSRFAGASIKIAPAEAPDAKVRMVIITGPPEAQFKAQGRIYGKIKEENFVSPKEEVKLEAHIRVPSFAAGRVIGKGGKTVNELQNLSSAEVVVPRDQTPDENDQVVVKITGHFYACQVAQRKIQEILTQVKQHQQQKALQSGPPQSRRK
# IMP3 KH1-2, sequence (chain, as listed by the source): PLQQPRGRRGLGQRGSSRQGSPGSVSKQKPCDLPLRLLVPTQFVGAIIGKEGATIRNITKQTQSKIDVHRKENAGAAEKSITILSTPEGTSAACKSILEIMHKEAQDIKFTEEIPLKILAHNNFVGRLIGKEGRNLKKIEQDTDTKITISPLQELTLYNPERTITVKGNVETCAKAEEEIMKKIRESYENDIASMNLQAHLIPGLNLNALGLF
# IMP3 RRM1-2, sequence (chain, as listed by the source): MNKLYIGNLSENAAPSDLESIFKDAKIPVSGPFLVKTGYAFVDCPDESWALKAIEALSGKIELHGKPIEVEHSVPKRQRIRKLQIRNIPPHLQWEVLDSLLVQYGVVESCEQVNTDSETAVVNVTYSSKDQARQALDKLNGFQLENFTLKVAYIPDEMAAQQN
# UniProt O00425, sequence (O00425 whole entry): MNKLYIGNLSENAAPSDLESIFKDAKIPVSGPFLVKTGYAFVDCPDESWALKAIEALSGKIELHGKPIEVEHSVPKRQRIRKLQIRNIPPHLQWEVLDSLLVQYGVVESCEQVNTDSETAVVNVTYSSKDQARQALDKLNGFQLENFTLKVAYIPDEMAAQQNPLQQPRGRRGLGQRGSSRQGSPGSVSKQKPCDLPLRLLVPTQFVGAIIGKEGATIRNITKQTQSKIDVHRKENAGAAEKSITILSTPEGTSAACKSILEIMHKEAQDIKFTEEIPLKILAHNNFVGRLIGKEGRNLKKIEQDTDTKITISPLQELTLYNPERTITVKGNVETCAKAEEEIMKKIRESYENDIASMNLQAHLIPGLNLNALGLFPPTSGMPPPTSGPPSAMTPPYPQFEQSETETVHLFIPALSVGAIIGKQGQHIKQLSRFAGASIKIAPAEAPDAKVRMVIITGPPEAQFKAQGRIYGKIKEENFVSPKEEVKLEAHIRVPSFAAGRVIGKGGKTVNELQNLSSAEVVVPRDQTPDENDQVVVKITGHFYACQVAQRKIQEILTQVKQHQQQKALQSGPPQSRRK
# IMP3 KH1-4, sequence (chain, as listed by the source): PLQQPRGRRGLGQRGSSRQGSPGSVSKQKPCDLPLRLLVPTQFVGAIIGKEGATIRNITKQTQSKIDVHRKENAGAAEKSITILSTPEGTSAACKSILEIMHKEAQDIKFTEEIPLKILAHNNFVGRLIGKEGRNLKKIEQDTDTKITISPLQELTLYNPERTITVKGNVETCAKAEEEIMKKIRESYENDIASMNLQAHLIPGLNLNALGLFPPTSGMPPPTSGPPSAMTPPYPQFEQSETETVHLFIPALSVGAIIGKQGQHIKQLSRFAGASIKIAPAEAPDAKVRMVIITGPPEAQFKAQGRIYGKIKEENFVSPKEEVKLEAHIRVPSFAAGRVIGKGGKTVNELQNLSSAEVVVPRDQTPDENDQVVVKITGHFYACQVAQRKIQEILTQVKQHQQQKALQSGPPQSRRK
Sequence,6-mer SELEX enrichment z-score [1],6-mer SELEX enrichment z-score [2],6-mer SELEX enrichment z-score [3],6-mer SELEX enrichment z-score [4],6-mer SELEX enrichment z-score [5]
CTACTA,0.606,0.341,-0.201,0.691,
TAATGG,0.664,-0.09,0.039,0.443,
CAGTTG,0.051,0.324,0.201,-0.05,
CCACTG,-0.065,-0.217,-0.153,0.094,
AACATG,1.41,0.914,1.12,1.06,
GCCCCC,1,-0.783,0.081,1.87,
TGTAGA,-0.457,-0.336,-0.744,-0.486,
TTTGGG,-0.174,0.459,0.059,-0.015,
AATTAA,1.62,-0.924,-0.344,1.56,
CTTAGG,-0.116,0.432,0.008,-0.09,
GACAGC,-0.433,-0.054,0.466,-0.332,
TTCAAT,1.02,1.14,1.03,1.18,
GGGGTA,0.055,0.193,0.218,0.322,
GTGACT,-0.246,-0.25,-0.367,-0.28,
GTGGAG,0.091,-0.082,-0.032,0.142,
GAGAGC,-1.29,-0.321,-0.359,-1.17,
GCTGCT,0.366,0.238,0.236,0.353,
CCTGGG,-0.804,-0.138,-0.388,-0.616,
AAGGGT,-0.066,-0.161,-0.07,0.008,
AATTTA,1.51,-0.395,0.072,1.42,
GATTAC,0.542,-0.408,-0.237,0.469,
GGTCGC,0.397,0.373,0.728,0.419,
GGATGC,0.253,-0.176,0.098,0.239,
AGACGA,-0.939,-1.47,-0.781,-0.9,

Sequence,6-mer SELEX enrichment z-score [1],6-mer SELEX enrichment z-score [2],6-mer SELEX enrichment z-score [3],6-mer SELEX enrichment z-score [4],6-mer SELEX enrichment z-score [5]
AATAAT,1.93,-0.631,0.078,1.97,
GTCGCC,0.457,0.177,0.627,0.36,
CCATTC,0.765,1.04,0.899,0.802,
GCCTAA,-0.927,-0.806,-0.906,-0.801,
CGGCGA,0.178,-0.128,1.28,-0.006,
CTTCAC,0.548,1.02,0.452,0.68,
GTTATT,0.308,0.344,0.029,0.249,
TGGTCG,0.236,0.402,0.521,0.252,
GTCGTC,-0.055,0.425,0.444,-0.088,
TATCGC,0.535,0.168,0.285,0.426,
TATCCA,-0.819,0.006,-0.798,-0.736,
CGACTG,-0.904,-0.547,-0.722,-0.771,
GATTGA,0.291,-0.712,-0.565,0.058,
GAGGGC,0.375,-0.079,0.753,0.594,
AACTCC,-0.684,-0.714,-1.12,-0.448,
AACTAT,1.45,-0.352,-0.173,1.26,
GCAAGG,0.317,-0.103,0.589,0.271,
TATGAC,0.809,-0.524,-0.272,0.523,
GGAGCC,-0.524,-0.73,0.007,-0.404,
GCCCAT,-0.59,-0.053,-0.196,-0.486,
AATATT,1.95,-0.217,0.282,1.76,
TAACGT,-0.287,-0.39,-0.413,-0.451,
CAGACG,-0.756,-0.262,0.111,-0.631,
CACAGA,0.819,1.69,1.93,1.09,

Sequence,6-mer SELEX enrichment z-score [1],6-mer SELEX enrichment z-score [2],6-mer SELEX enrichment z-score [3],6-mer SELEX enrichment z-score [4],6-mer SELEX enrichment z-score [5]
TACTAA,0.803,0.17,-0.32,0.855,
AATAAA,1.45,-1.95,-0.869,1.69,
CGGTGG,0.237,0.133,0.407,0.336,
CCAACT,-0.729,-0.435,-0.963,-0.657,
ATATAA,2.41,-0.131,0.402,2.28,
GAAATA,0.936,-1.55,-0.815,0.729,
ACCGAC,-1.88,-1.26,-1.48,-1.52,
AATGAG,-0.637,-0.935,-1.35,-0.948,
TGTCCC,-0.172,-0.219,-0.329,-0.236,
AGGCCT,-0.037,-0.006,0.109,-0.041,
GGAGCG,-2.25,-0.264,-0.686,-1.91,
GTTTTC,-0.116,0.417,-0.009,-0.086,
TATTTA,1.2,0.241,0.272,1.11,
TCATGC,0.386,0.871,0.978,0.29,
GAGCAT,-0.496,0.417,0.682,-0.538,
CATTAT,1.83,0.904,1.2,1.61,
GGTGAG,0.375,-0.139,0.364,0.46,
TATTCA,1.16,0.974,0.742,1.13,
CCGTAA,-0.648,-0.935,-0.741,-0.463,
GCCTCT,-0.579,0.141,-0.123,-0.439,
GTCTAC,-0.284,0.113,0.02,-0.308,
ACGTTT,-0.603,-0.047,-0.42,-0.536,
TGGTGC,-0.331,0.357,0.007,-0.26,
TAGCCG,-0.328,-0.181,-0.155,-0.302,

Sequence,6-mer SELEX enrichment z-score [1],6-mer SELEX enrichment z-score [2],6-mer SELEX enrichment z-score [3],6-mer SELEX enrichment z-score [4],6-mer SELEX enrichment z-score [5]
CGCGCT,-0.362,0.188,0.147,-0.208,
AATGCT,0.292,-0.397,-0.345,0.223,
TCAGCG,-1.36,0.476,-0.03,-1.24,
CCTGCG,-1.9,-0.286,-1.06,-1.7,
AAATCA,0.787,2.37,1.33,0.784,
TTTTCA,1.18,0.791,0.938,1.43,
CAACAG,-0.43,2.67,1.85,-0.103,
GCCCCA,-0.597,-0.679,-0.292,-0.264,-1.17
AGCTAA,-0.776,-0.395,-0.642,-0.701,-0.498
GTTAGA,0.027,-0.079,-0.251,-0.127,
CTGATG,-0.034,-0.312,-0.469,-0.044,-0.039
GCGAAA,-1.4,-1.32,-1.04,-1.34,
ATCTAT,0.923,0.401,0.326,0.689,
TGCGAA,-0.799,-0.509,-0.789,-0.815,
CCTCGG,-0.662,0.118,0.271,-0.54,
ACTAGG,0.194,0.117,0.114,0.123,
GATTCG,-0.043,-0.155,-0.087,-0.129,
GACACT,0.272,0.254,0.199,0.162,
TGCACC,0.209,-0.137,0.071,0.026,
TAATAG,0.949,-0.185,0.057,0.822,
ACATTC,1.75,2.18,2.22,1.85,
AGGAAC,0.051,0.038,-0.125,-0.085,
CACCGA,-1.5,-0.615,-0.466,-1.18,-1.92
GATCAG,0.372,0.349,0.679,0.315,

Sequence,6-mer SELEX enrichment z-score [1],6-mer SELEX enrichment z-score [2],6-mer SELEX enrichment z-score [3],6-mer SELEX enrichment z-score [4],6-mer SELEX enrichment z-score [5]
CCCTCG,-1.14,-0.158,-0.51,-0.996,
GCCTGG,-0.498,-0.018,-0.038,-0.393,-0.54
AAGTTC,-0.105,-0.002,-0.201,-0.163,
GTGGCT,0.151,0.289,0.336,0.209,
TATTTT,1.25,0.38,0.431,1.16,1.85
CCCGCA,-0.512,0.098,0.151,-0.266,
GCGATA,-0.247,-0.41,-0.138,-0.241,
CTCGCG,-1.38,0.186,-0.143,-0.911,-1.17
AGGTGG,0.682,0.075,0.499,0.701,
AAACAT,1.22,2.28,1.64,1.17,
GCTCTC,-0.254,0.479,0.285,-0.116,
ACCCAA,-3.58,-1.56,-3.2,-3.57,-4.18
TCTCGC,-0.561,0.474,0.218,-0.387,-0.455
ATTTTG,0.146,0.18,-0.096,0.128,0.537
GCCGGC,0.808,0.174,1.24,0.767,0.528
CCTGCC,-1.15,-0.621,-1.01,-0.914,
TGCGGA,-0.237,-0.159,-0.134,-0.232,
AGACGT,-1.27,-0.652,-0.632,-1.21,
GCGAGT,-1.1,-0.099,-0.335,-0.912,
TTGTAA,0.34,-0.147,-0.341,0.156,0.666
TAACAG,0.732,0.018,0.529,0.89,
CAGGAA,0.8,-0.101,0.476,0.679,
CTTTCT,0.696,0.388,0.243,0.728,0.555
CATACC,-0.47,0.472,0.003,-0.392,-1.04
